# The list shows a part of the results.
# B1: LcH (Lens culinaris), P02870 (protein)
# chain: TETTSFSITKFSPDQQNLIFQGDGYTGKEGLTLTKVSKETGGRALYSTPIHIWDRDTVNVANFVTNGSQVFRESPNGYNVADGFTFFIAPVDTKPQTGGGYLGVFYNGKEYDKTSQTVAVEFDTFYNAAWDPSNKERHIGIDVNSIKSVNTKSWNLQNGVTSYTLNEVVPLKDVVPEWVRIGFSATTGAEFAAQEVHSWSFNSQLGHTSKS
# Columns and labels:
# Assay in all cases: glycan array binding signal (z-score within array); higher = stronger binding
# Conditions in all cases: glycan notation: IUPAC condensed, linker removed
# GlcNAc(b1-6)GalNAc = target: GlcNAc(b1-6)GalNAc
# Outline: (§1)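 The binding signal is a Z-score computed within each array and averaged over linkers. Arrays of the same protein sequence at different concentrations or buffers were also averaged together. Data originate from 3228 arrays in the Consortium for Functional Glycomics database, kept only where the protein sequence was available.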
# GlcNAc3Prop(b1-4)GlcNAc = target: GlcNAc3Prop(b1-4)GlcNAc
# Outline: as §1
# [1] = target: GlcNAc6S(b1-3)Gal(b1-4)GlcNAc
# Outline: as §1
# Kdn(a2-3)Gal(b1-3)GalNAc = target: Kdn(a2-3)Gal(b1-3)GalNAc
# Outline: as §1
# Kdn(a2-3)Gal(b1-3)GlcNAc = target: Kdn(a2-3)Gal(b1-3)GlcNAc
# Outline: as §1
# Kdn(a2-3)Gal(b1-4)Glc = target: Kdn(a2-3)Gal(b1-4)Glc
# Outline: as §1
# Kdn(a2-3)Gal(b1-4)GlcNAc = target: Kdn(a2-3)Gal(b1-4)GlcNAc
# Outline: as §1
# [2] = target: Kdn(a2-3)Gal(b1-4)[Fuc(a1-3)]GlcNAc
# Outline: as §1
# Kdn(a2-6)Gal(b1-4)GlcNAc = target: Kdn(a2-6)Gal(b1-4)GlcNAc
# Outline: as §1
# [3] = target: Man(a1-2)Man(a1-2)Man(a1-3)Man
# Outline: as §1
# [4] = target: Man(a1-2)Man(a1-2)Man(a1-6)[Man(a1-3)]Man
# Outline: as §1
# Man(a1-2)Man(a1-3)Man = target: Man(a1-2)Man(a1-3)Man
# Outline: as §1
# [5] = target: Man(a1-2)Man(a1-3)[Man(a1-2)Man(a1-6)]Man
# Outline: as §1
# [6] = target: Man(a1-2)Man(a1-3)[Man(a1-2)Man(a1-6)]Man(a1-6)[Man(a1-2)Man(a1-2)Man(a1-3)]Man
# Outline: as §1
# [7] = target: Man(a1-2)Man(a1-3)[Man(a1-2)Man(a1-6)]Man(a1-6)[Man(a1-2)Man(a1-2)Man(a1-3)]Man(b1-4)GlcNAc(b1-4)GlcNAc
# Outline: as §1
# [8] = target: Man(a1-2)Man(a1-3)[Man(a1-6)]Man(a1-6)[Man(a1-2)Man(a1-3)]Man(b1-4)GlcNAc(b1-4)GlcNAc
# Outline: as §1
# [9] = target: Man(a1-2)Man(a1-6)[Man(a1-3)]Man(a1-6)[Man(a1-2)Man(a1-2)Man(a1-3)]Man
# Outline: as §1
# [10] = target: Man(a1-2)Man(a1-6)[Man(a1-3)]Man(a1-6)[Man(a1-2)Man(a1-2)Man(a1-3)]Man(b1-4)GlcNAc(b1-4)GlcNAc
# Outline: as §1
# Man(a1-3)[Man(a1-6)]Man = target: Man(a1-3)[Man(a1-6)]Man
# Outline: as §1
# [11] = target: Man(a1-3)[Man(a1-6)]Man(a1-6)[Man(a1-2)Man(a1-3)]Man(b1-4)GlcNAc(b1-4)GlcNAc
# Outline: as §1
# [12] = target: Man(a1-3)[Man(a1-6)]Man(a1-6)[Man(a1-3)]Man
# Outline: as §1
# [13] = target: Man(a1-3)[Man(a1-6)]Man(a1-6)[Man(a1-3)]Man(b1-4)GlcNAc(b1-4)GlcNAc
# Outline: as §1
# [14] = target: Man(a1-3)[Man(a1-6)]Man(b1-4)GlcNAc(b1-4)GlcNAc
# Outline: as §1
# Man(a1-6)Man = target: Man(a1-6)Man
# Outline: as §1
# Man(b1-4)GlcNAc = target: Man(b1-4)GlcNAc
# Outline: as §1
# Neu5Ac(a2-3)Gal = target: Neu5Ac(a2-3)Gal
# Outline: as §1
# [15] = target: Neu5Ac(a2-3)Gal(b1-3)GalNAc
# Outline: as §1
# [16] = target: Neu5Ac(a2-3)Gal(b1-3)GalNAc(b1-3)Gal(a1-4)Gal(b1-4)Glc
# Outline: as §1
# [17] = target: Neu5Ac(a2-3)Gal(b1-3)GalNAc(b1-3)Gal(b1-4)GlcNAc
# Outline: as §1
# [18] = target: Neu5Ac(a2-3)Gal(b1-3)GalNAc(b1-4)[Neu5Ac(a2-3)]Gal(b1-4)Glc
# Outline: as §1
# [19] = target: Neu5Ac(a2-3)Gal(b1-3)GalNAc6S
# Outline: as §1
# [20] = target: Neu5Ac(a2-3)Gal(b1-3)GlcNAc
# Outline: as §1
# [21] = target: Neu5Ac(a2-3)Gal(b1-3)GlcNAc(b1-3)Gal(b1-3)GlcNAc
# Outline: as §1
# [22] = target: Neu5Ac(a2-3)Gal(b1-3)GlcNAc6S
# Outline: as §1
# [23] = target: Neu5Ac(a2-3)Gal(b1-3)[Fuc(a1-4)]GlcNAc
# Outline: as §1
# [24] = target: Neu5Ac(a2-3)Gal(b1-3)[Fuc(a1-4)]GlcNAc(b1-3)Gal(b1-3)[Fuc(a1-4)]GlcNAc
# Outline: as §1
binder,measurement,setting,value
B1,glycan array binding signal (z-score),GlcNAc(b1-6)GalNAc,-0.11
same,glycan array binding signal (z-score),GlcNAc3Prop(b1-4)GlcNAc,-0.127
same,glycan array binding signal (z-score),[1],-0.112
same,glycan array binding signal (z-score),Kdn(a2-3)Gal(b1-3)GalNAc,-0.11
same,glycan array binding signal (z-score),Kdn(a2-3)Gal(b1-3)GlcNAc,-0.12
same,glycan array binding signal (z-score),Kdn(a2-3)Gal(b1-4)Glc,-0.124
same,glycan array binding signal (z-score),Kdn(a2-3)Gal(b1-4)GlcNAc,-0.066
same,glycan array binding signal (z-score),[2],-0.119
same,glycan array binding signal (z-score),Kdn(a2-6)Gal(b1-4)GlcNAc,-0.11
same,glycan array binding signal (z-score),[3],0.499
same,glycan array binding signal (z-score),[4],0.8
same,glycan array binding signal (z-score),Man(a1-2)Man(a1-3)Man,-0.089
same,glycan array binding signal (z-score),[5],1.24
same,glycan array binding signal (z-score),[6],3.73
same,glycan array binding signal (z-score),[7],-0.1
same,glycan array binding signal (z-score),[8],-0.089
same,glycan array binding signal (z-score),[9],0.076
same,glycan array binding signal (z-score),[10],-0.103
same,glycan array binding signal (z-score),Man(a1-3)[Man(a1-6)]Man,-0.127
same,glycan array binding signal (z-score),[11],1.05
same,glycan array binding signal (z-score),[12],-0.103
same,glycan array binding signal (z-score),[13],-0.115
same,glycan array binding signal (z-score),[14],-0.129
same,glycan array binding signal (z-score),Man(a1-6)Man,-0.118
same,glycan array binding signal (z-score),Man(b1-4)GlcNAc,-0.11
same,glycan array binding signal (z-score),Neu5Ac(a2-3)Gal,-0.115
same,glycan array binding signal (z-score),[15],-0.118
same,glycan array binding signal (z-score),[16],-0.115
same,glycan array binding signal (z-score),[17],-0.117
same,glycan array binding signal (z-score),[18],-0.11
same,glycan array binding signal (z-score),[19],-0.126
same,glycan array binding signal (z-score),[20],-0.118
same,glycan array binding signal (z-score),[21],-0.099
same,glycan array binding signal (z-score),[22],-0.102
same,glycan array binding signal (z-score),[23],-0.109
same,glycan array binding signal (z-score),[24],-0.088
